# Source: paper PMC4336329 (PLoS ONE, 2015)
# Out of some 310,000 compounds screened, about 14,000 (4.5%) showed an effect of 50% or more. The effect is printed as a negative number. This is one part of the list.
# Target: human ether-à-go-go-related gene (hERG) potassium channel (human, UniProt Q12809)
# Assay: primary screen, population patch clamp on CHO cells stably expressing hERG
# 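Further: peak tail current of the secondary pulse compared with the same well before compound.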
# human ether-à-go-go-related gene (hERG) potassium channel, sequence (Q12809 whole entry, looked up): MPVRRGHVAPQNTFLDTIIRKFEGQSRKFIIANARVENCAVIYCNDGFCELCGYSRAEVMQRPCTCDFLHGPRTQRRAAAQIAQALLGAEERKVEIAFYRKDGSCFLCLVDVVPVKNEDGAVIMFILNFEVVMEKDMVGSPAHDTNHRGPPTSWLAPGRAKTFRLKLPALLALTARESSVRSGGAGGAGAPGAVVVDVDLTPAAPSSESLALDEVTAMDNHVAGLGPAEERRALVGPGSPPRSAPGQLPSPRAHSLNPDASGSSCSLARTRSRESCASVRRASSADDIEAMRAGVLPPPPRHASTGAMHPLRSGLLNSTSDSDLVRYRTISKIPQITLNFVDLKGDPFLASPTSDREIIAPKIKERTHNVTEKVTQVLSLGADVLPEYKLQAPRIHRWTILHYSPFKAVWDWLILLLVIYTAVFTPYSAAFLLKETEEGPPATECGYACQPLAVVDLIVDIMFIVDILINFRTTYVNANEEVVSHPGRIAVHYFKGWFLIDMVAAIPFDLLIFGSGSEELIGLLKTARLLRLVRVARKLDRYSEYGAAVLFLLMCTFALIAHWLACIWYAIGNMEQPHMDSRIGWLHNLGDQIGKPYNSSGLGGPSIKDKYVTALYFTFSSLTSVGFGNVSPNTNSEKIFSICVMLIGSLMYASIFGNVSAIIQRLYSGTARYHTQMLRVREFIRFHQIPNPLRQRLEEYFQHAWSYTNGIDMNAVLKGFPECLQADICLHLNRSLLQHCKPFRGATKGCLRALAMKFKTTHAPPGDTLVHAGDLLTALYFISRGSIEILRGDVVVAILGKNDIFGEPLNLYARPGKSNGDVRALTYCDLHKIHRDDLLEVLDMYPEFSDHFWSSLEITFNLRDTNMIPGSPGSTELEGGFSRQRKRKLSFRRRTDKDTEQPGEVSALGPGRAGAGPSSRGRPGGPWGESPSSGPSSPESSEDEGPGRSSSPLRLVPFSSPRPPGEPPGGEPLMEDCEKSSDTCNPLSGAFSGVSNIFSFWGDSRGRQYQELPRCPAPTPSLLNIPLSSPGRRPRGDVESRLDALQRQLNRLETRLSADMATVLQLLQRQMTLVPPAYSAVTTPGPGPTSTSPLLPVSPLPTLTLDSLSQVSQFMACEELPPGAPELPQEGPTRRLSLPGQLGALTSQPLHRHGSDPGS
row,SMILES,"hERG current change (%, negative = inhibition) at 10uM [%]"
1,Cn1c(=O)c2c(nc(OC/C=C/c3ccccc3)n2C)n(C)c1=O,2.28
2,CN(CC(=O)NCc1ccncc1)S(=O)(=O)c1ccc(Br)cc1,-13.4
3,CCOC(=O)N1CCN(C(=O)c2cc(COc3cccc(C(C)=O)c3)on2)CC1,1.62
4,Cc1ccc(CS(=O)(=O)CCC(=O)NCCN(C)Cc2ccccc2)cc1,-17.8
5,O=C(OCc1c(-c2ccccc2)ncc2ccccc12)c1ccc(Br)cc1,20.8
6,Cc1cc2ncn(/N=C/c3ccc([N+](=O)[O-])o3)c2cc1C,-0.858
7,C/C(Cl)=C/Cn1c(NCCCn2ccnc2)nc2c1c(=O)[nH]c(=O)n2C,-10.5
8,COc1ccc(OC)c(/C=C2\S/C(=N/NC(=O)c3ccc4ccccc4c3)NC2=O)c1,16.5
9,Oc1ccc2ccccc2c1C=NC12CN3CCN(CN(C3)C1)C2,6.78
10,CCCNc1nc(Cl)nc(Nc2ccc(Cl)cc2)n1,12.6
11,COC(=O)C(Cc1ccccc1)NC(=O)CC(C)CC(=O)Nc1ccc(C)cc1 (stereo not shown),5.88
12,Cc1cccc(CN2CCOCCS2(=O)=O)c1,10.2
13,Cc1c(OCC(=O)NCC2CCC(C(=O)O)CC2)ccc2c3c(c(=O)oc12)CCC3 (stereo not shown),4.29
14,Cc1cccc(NC(=O)CCSc2nnc(Cc3ccccc3)o2)c1,4.48
15,COc1cccc(CN2CCN(Cc3ccc(C#CC(C)(C)O)s3)CC2CCO)c1 (stereo not shown),-41.2
16,COc1cc(OC)nc(-n2ncc(OC)c(Br)c2=O)n1,-8.39
17,Cc1cc(C)nc(NC(=O)CSc2ncccn2)n1,17.9
18,CCCCNC(=O)CCCn1c(=S)[nH]c2cc3c(cc2c1=O)OCO3,15.1
19,CCNC(=O)CN(Cc1ccccc1)S(=O)(=O)c1ccccc1,-2.82
20,CC(C)CNS(=O)(=O)c1ccc(CCC(=O)N2CCC(C(N)=O)CC2)cc1,7.64
21,COc1ccc(S(N)(=O)=O)cc1C(=O)OCC(=O)NC(C)(C#N)C1CC1 (stereo not shown),21.3
22,COc1ccc(-c2cc(C(=O)N3CCN(c4ccccc4)CC3)c3ccccc3n2)cc1,5.37

row,SMILES,"hERG current change (%, negative = inhibition) at 10uM [%]"
1,Cc1cc(-n2c(C)cc(C(=O)CN3C(=O)NC4(CCCCC4C)C3=O)c2C)no1 (stereo not shown),-17.3
2,COc1ccc2c(CC(=O)OCC(=O)Nc3cccc(S(N)(=O)=O)c3)coc2c1,4.07
3,Cc1ccc(C(=O)N[C@H](C(=O)OCc2nnc(-c3ccccc3)o2)C(C)C)cc1,-8.14
4,COc1cc(C)ccc1Oc1nc(-c2ccccc2O)nc2ccccc12,15.4
5,CCn1c(SCc2ccc(F)cc2)nc2c(c1=O)SCC2,-0.22
6,CC(C)CN(C(=O)COC(=O)c1ccc([N+](=O)[O-])o1)C1CCS(=O)(=O)C1 (stereo not shown),-31.8
7,Cc1sc(NC(=O)C2CCCO2)c(C#N)c1C (stereo not shown),14.1
8,COc1ccc(CCNC(=O)c2cc(=O)c3ccc(C)cc3o2)cc1OC,0.816
9,COc1ccc(-c2cccc(NS(=O)(=O)c3cc([N+](=O)[O-])ccc3C)c2)nn1,-9.14
10,COc1cccc(CN(CC2CCCO2)C(=O)c2cc3ccccc3oc2=O)c1 (stereo not shown),10.1
11,CC1CN(C2CCN(C(=O)c3ccccc3Cl)CC2)CC(C)O1 (stereo not shown),-8.79
12,Cc1ccc(C(=O)Nc2ncccc2O)o1,17.6
13,O=[N+]([O-])c1ccc(NCc2ccc3c(c2)OCO3)cc1,68.6
14,O=C(Nc1ccc(C(=O)O)cc1)/C(=C\c1ccco1)NC(=O)c1ccccc1Cl,5.63
15,O=C(O)CCc1nn2c3ccccc3n(Cc3ccccc3)c2nc1=O,27
16,NC(=O)c1c(NC(=O)C(=O)N2CCOCC2)sc2c1CCC2,13.1
17,Cc1cc2ccccn2c1C(=O)c1ccc(Cl)c([N+](=O)[O-])c1,19.3
18,COc1ccc(S(=O)(=O)N(CC(=O)NC2CC2)C2CCCCC2)cc1Cl,-10.9
19,O=c1c2cc(NC(=S)N3CCCC3)ccc2nc2n1CCCCC2,-28
20,O=C(Nc1ccc(F)cc1Cl)C1=COCCO1,-5.63
21,O=C(O)c1cccc(N/N=C(\N=Nc2ccccc2)c2ccccc2)c1,14.2
22,COc1ccc(-c2csc(NC(=O)/C(N=Nc3ccccc3)=C(\C)O)n2)cc1,37.4

row,SMILES,"hERG current change (%, negative = inhibition) at 10uM [%]"
1,Cc1cccc(N2CCN(C(=O)CCS(=O)(=O)c3ccc4c(c3)NC(=O)C(C)S4)CC2)c1C (stereo not shown),29
2,O=C(CCCN1C(=O)CSc2ncccc21)N1CCN(c2cccc(C(F)(F)F)c2)CC1,-56.5
3,Cc1ccc(-n2cc(CN(C)Cc3nccn3C)c(-c3ccc(F)cc3)n2)cc1,-37.6
4,Cc1ccc(CN2CCN(Cc3ccc(C)s3)CC2CCO)cc1 (stereo not shown),-73.3
5,Cc1ccc(NC(=S)Nc2c(C)n(C)n(-c3ccccc3)c2=O)cc1Cl,-22.7
6,CCOC(=O)c1cc(-c2ccccc2C)nn1Cc1cc(C)no1,-4.63
7,CC1=CC2(O)OCCN(CCO)C2=CC1=O (stereo not shown),1.48
8,Cc1ccc2sc(N(CCN(C)C)C(=O)c3ccc4ccccc4c3)nc2c1C.Cl,18.7
9,O=C(Nc1ccc(N2CCN(C(=O)c3ccco3)CC2)cc1)c1ccco1,20.7
10,C/C(=N\NC(=O)c1ccc2nc[nH]c2c1)c1ccc([N+](=O)[O-])cc1,-19.1
11,Cc1ccc(C)c(Cn2nc(-c3cc(C)ccc3C)ccc2=O)c1,-3.14
12,CC(C)NC(=O)c1ccccc1NC(=O)/C=C/c1ccc([N+](=O)[O-])cc1,-18.8
13,CCC(C)(C)n1nnnc1C(c1cc(OC)c(OC)c(OC)c1)N1CCN(c2ccccc2)CC1 (stereo not shown),-8.58
14,Br.Cc1ccccc1OCC(=O)NN1Cc2ccccc2C1=N,-0.416
15,Cc1csc(NC(=O)CSc2nnc(-c3ccoc3C)n2CCc2ccccc2)n1,-59.7
16,CC1(c2nnc(-c3cccc(Cl)c3)o2)CC(c2cccnc2)=NO1 (stereo not shown),-9.06
17,CCOC(=O)C1=C(O)CSC1=Nc1ccc(C)cc1,-4.86
18,CCCCCn1c(-c2ccco2)nc2nc3ccccc3nc21,-67.5
19,COc1ccc(NC(=O)c2cc3c(Cl)nc4ccccc4c3s2)cc1OC,19.5
20,CC(C)(C)OC(=O)NCCCCCNC(=O)c1[nH]cnc1C(=O)Nc1cccc(Cl)c1,6.09
21,S=C(NCCSCc1ccccc1Cl)Nc1ccccc1,-7.59
22,CC(=O)N1CCN(CC(=O)Nc2ccccc2C(=O)NCc2ccc(C)cc2)CC1,-25.4

row,SMILES,"hERG current change (%, negative = inhibition) at 10uM [%]"
1,Nc1cccc(C#Cc2ccc3c(=O)c4ccccc4oc3c2)c1,11.6
2,Cn1sc(=O)c2cc(S(=O)(=O)NC3CC3)ccc21,-16.2
3,COc1ccc(-n2ncc3c(N4CCN(Cc5ccccc5)CC4)ncnc32)cc1,-4.91
4,c1cnc(NCCNc2ncccn2)nc1,9.05
5,COc1ccc(C)cc1S(=O)(=O)N1CCN(C(=O)c2ncoc2-c2cccc(F)c2)CC1,13.8
6,NNC(=O)CNc1cccc(Br)c1,11.7
7,N#Cc1c(NC(=O)C2CC=CCC2C(=O)O)sc2c1CCCCCC2 (stereo not shown),-25.1
8,O=C(Nc1nnc(C2CC2)s1)c1ccco1,0.189
9,CCN(CC)c1ccc(C(=O)N/N=C/c2ccccc2OC(F)F)cc1,14.4
10,O=C(C1CCCC1)N1CCC(CC2CC(c3cccc(Br)c3)=NO2)(C(=O)NCC2CCCCC2)CC1 (stereo not shown),-49.9
11,COc1ccc(Br)cc1CN1CCCCCC1,-16.3
12,CCn1c(=O)c(C(=O)NNS(=O)(=O)c2ccc(Cl)cc2)c(O)c2ccccc21,-13.5
13,Cc1scc(C(=O)N/N=C/c2ccc(Cl)s2)c1C,-3.55
14,C=CCOc1cccc(C2/C(=C(/O)c3ccc(Cl)cc3)C(=O)C(=O)N2CCN2CCOCC2)c1 (stereo not shown),-0.107
15,Cc1ccc(NC(=O)C2CCN(S(C)(=O)=O)CC2)cc1C,3.29
16,CCC1(CC)NC(=O)N(Cc2nc3ccccc3s2)C1=O,7.3
17,Cc1ccc2c(c1)nnn2C1CCN(CC(=O)Nc2ccccc2N2CCOCC2)CC1,-69.8
18,O=C(CN1CCN(S(=O)(=O)c2ccc(Br)cc2)CC1)N/N=C/c1ccc(Cl)c([N+](=O)[O-])c1,-17.9
19,COC(=O)c1ccccc1NC(=O)CCC(=O)N1CCSc2ccccc21,-12.1
20,O=C(Nc1ccccc1)N1CCc2c([nH]c3ccccc23)C1C(F)(F)F (stereo not shown),4.42
21,Nc1nc(SCc2ccccc2)n[nH]1,-1.03
22,O=C(O)CN1C(=O)/C(=C\C(Br)=C\c2ccccc2)SC1=S,11.3
